Reference: the supplement of paper PMC11417369
± gives the standard deviation of the averaged measurements. This is one part of the list.

Tested on: PfAP2-I AP2 domain 3 (GST-tagged)
Assay: gcPBM binding intensity (ln(normalized median fluorescence intensity)); higher = stronger DNA binding
Procedure, shortened: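 In this array assay, P. falciparum DNA-binding domains with a GST tag, expressed in E. coli, were applied for 1 h to primer-extended double-stranded 36-bp intergenic genomic probes and negative controls on an Agilent 4 × 180k array. Bound protein was visualised with Alexa488 anti-GST antibody at 488 nm. Binding intensity is the highest Masliner-normalised natural-log median intensity across replicate spots of either probe orientation.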

| Sequence | gcPBM binding intensity (ln) |
| --- | --- |
| ATTACATGCAATATATGTACGTAATATATATATATA [XGTACX_site2300] | 9.075 ± 0.035 |
| CTGAACCCGTTATGGTGTACATAAAATAAGACACAG [XGTACX_site3484] | 8.46 ± 0.38 |
| TTATTACATGTTACTTAACACACATCTGGTGAAATA [CACACA_site7939] | 7.99 ± 0.48 |
| AAAATATAGTAATATATATATGTATATTATTTGTGG [CACACA_negctrl_site1590] | 7.47 ± 0.39 |
| GGAAAGACAGTTCACAGTACCCAGTAAACTCTACGG [XGTACX_site2557] | 7.29 ± 0.75 |
| TTTATATATGTAAATGCACACATATGTGTATATACT [CACACA_site8493] | 9.72 ± 0.35 |
| ATATATAATATTTTTATTTTTATTTTTTTTTTATGA [TGCATGCA_negctrl_site577] | 7.37 ± 0.49 |
| ATTAAGTTCAAATGTAGTACGTGTAAAAAAAAAAAA [XGTACX_site1578] | 8.28 ± 0.66 |
| TACCATGTTCAAATTACACACATATAATGTAATATA [CACACA_site5150] | 7.66 ± 0.35 |
| TATAGGTATATATTATGTACTTATAATTATATAGAT [XGTACX_site1912] | 7.82 ± 0.34 |
| AAAATAAATAAATAAATAAATATATATATATATATA [XGTACX_negctrl_site345] | 9.32 ± 0.31 |
| GATTATATTATATATTAAATATAAATATGTATTATA [TGCATGCA_negctrl_site66] | 7.42 ± 0.23 |
| ATGTTGTGTATATATACACACATACATATATATATA [CACACA_site8461] | 9.3 ± 0.46 |
| GAAATATTTAGACACACACACAAACATATAAATATA [CACACA_site6980] | 7.92 ± 0.3 |
| AAAAAAAATTAAAATAAATTAAAAAGTAATTATATA [GTGCAC_negctrl_site615] | 7.14 ± 0.38 |
| AATGAGAAGGACTGCACACTAAAATGGAAGGAGAAA [CACACA_site1575] | 8.28 ± 0.79 |
| AATGGAAATGTAAAATGTACAGGACGCACACACATA [XGTACX_site7788] | 8 ± 0.35 |
| GAAAAAATTTTATGGTGTACTTTATTTATTTATATA [XGTACX_site6323] | 8.06 ± 0.28 |
| TTTTTATTATTCTTAAGGATATAACAAAAAAGAAAA [XGTACX_negctrl_site584] | 7.52 ± 0.37 |
| ATTAATATTATTAGAAGTACTAATAGTAGTATAACT [XGTACX_site1325] | 7.72 ± 0.59 |
| TAAACGTTAGTATGTGTGCACATTAGTAATTTAAAA | 9.65 ± 0.3 |
| TTCTAAAAAAATAAAATTATCAAGGTTTTTAAACGT [CACACA_negctrl_site308] | 7.55 ± 0.6 |
| TCAAAGCACACATACACACACATATAGATTTATATA [CACACA_site6272] | 8.41 ± 0.18 |
| TAAATAAATATATATTCACACACAAACATATATATA [CACACA_site9332] | 7.78 ± 0.68 |
